{"source": "PubChem BioAssay AID1508642", "about": "(National Center for Advancing Translational Sciences (NCATS), 2021)", "note": "About 200 (0.47%) of roughly 43,000 compounds were called active. Not shown: some 12% with an inconclusive outcome. Calls come from the whole dose curve; as a rule, active = well fitted cell-killing curve with a large enough effect; inconclusive = small, poorly fitted or top-dose-only effect, or effect the other way; inactive = flat fitted curve, though single readings scatter. This is one part of the list. % is set by controls: 0 for no effect and ±100 for the full control effect.", "data": [{"experiment": "Cell viability qHTS assay in S16 Pmp22-F2sN cells; note: nearly all actives have a fitted effect of over 65% in size", "conditions": "S16 Pmp22-F2sN Schwann cells viability, CellTiter-Glo, 24 h; series mostly up to 57.5 µM; activity change, negative = cytotoxicity: at the top concentration", "outline": "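S16 Pmp22-F2sN Schwann cells (500-1,000/well) in phenol-red-free DMEM with 10% FBS received 23 nL compound by pin tool for 24 h at 37 °C. Viability was then read as CellTiter-Glo luminescence after 15 min at room temperature.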", "values": [{"smiles": "Cc1ccccc1NC(=O)CSC1=Nc2ccccc2C2=NC(CCC(=O)NCc3ccccc3)C(=O)N12", "note": "(stereo not drawn)", "activity change, negative = cytotoxicity": "inactive: -7%"}, {"smiles": "Cc1nc(CC(=O)Nc2ccc(N(C)C)cc2)cs1", "activity change, negative = cytotoxicity": "inactive: 5.61%"}, {"smiles": "COc1ccc(-n2nc(C(=O)Nc3cccc(C(F)(F)F)c3)c3c4ccccc4n(C)c3c2=O)cc1", "activity change, negative = cytotoxicity": "inactive: 7.94%"}, {"smiles": "O=C(NCc1cccc(Cl)c1)C1CCN(C(=O)c2sccc2-n2cccc2)CC1", "activity change, negative = cytotoxicity": "inactive: -6.29%"}, {"smiles": "CCc1ccc(C(=O)c2cn(CC(=O)Nc3ccc(OC)cc3OC)c3ccc(CC)cc3c2=O)cc1", "activity change, negative = cytotoxicity": "inactive: -0.7%"}, {"smiles": "CC(=O)N1CCC(N(C(=O)Nc2c(F)cccc2F)C(C)C)CC1", "activity change, negative = cytotoxicity": "inactive: -9.48%"}, {"smiles": "Cc1ccc(N(C)C(=O)c2cnc(N3CCOCC3)c3ccccc23)cc1C", "activity change, negative = cytotoxicity": "inactive: -1.65%"}, {"smiles": "COc1cccc(C(=O)Nc2cccc(C(=O)OCc3cc(=O)n4nc(C(C)C)sc4n3)c2)c1", "activity change, negative = cytotoxicity": "inactive: 0.289%"}, {"smiles": "CC(NC(=O)CCSCc1ccccc1F)c1ccccc1", "note": "(stereo not drawn)", "activity change, negative = cytotoxicity": "inactive: -4.03%"}, {"smiles": "O=C(c1ccc2c(c1)N(Cc1ccccc1F)C(=O)c1ccccc1S2(=O)=O)N1CCCC1", "activity change, negative = cytotoxicity": "inactive: 19%"}, {"smiles": "COc1ccc(-c2cc(-c3ccccc3)nc(SCC(=O)CC(=O)OC(C)C)c2C#N)cc1", "activity change, negative = cytotoxicity": "inactive: -24.7%"}, {"smiles": "COCCCNC(=O)c1c(NC(=O)Cc2coc3cc(C)cc(C)c23)sc2c1CCCC2", "activity change, negative = cytotoxicity": "inactive: -24.1%"}, {"smiles": "CCc1ccc(CNC(=O)CSc2cc(=O)n(C)c3ccc(Cl)cc23)cc1", "activity change, negative = cytotoxicity": "inactive: 18.1%"}, {"smiles": "CCN(CCCNC(=O)c1cc2c(=O)n(CC)c3ccccc3c2s1)c1ccccc1", "activity change, negative = cytotoxicity": "inactive: 12%"}, {"smiles": "Cc1ccc(-c2noc(-c3nnn(CC(=O)Nc4cc(C)cc(C)c4)c3N)n2)cc1", "activity change, negative = cytotoxicity": "inactive: 2.66%"}, {"smiles": "CCCNC(=O)CSc1nc2nc(C)c(Cc3ccccc3Cl)c(C)n2n1", "activity change, negative = cytotoxicity": "inactive: 5.52%"}, {"smiles": "COc1ccc(CCCc2nnc(SCC(=O)Nc3ccc(C)cc3C)o2)cc1", "activity change, negative = cytotoxicity": "inactive: 28.9%"}, {"smiles": "CCN(CC)S(=O)(=O)c1cc(-c2onc(C)c2C)ccc1OC", "activity change, negative = cytotoxicity": "inactive: 0.751%"}, {"smiles": "COc1ccc(C(=O)N(Cc2cc(OC)c(OC)c(OC)c2)CC2CCCO2)cc1", "note": "(stereo not drawn)", "activity change, negative = cytotoxicity": "inactive: 3.24%"}, {"smiles": "Cc1cc(F)ccc1NCc1ccccc1-c1nnc(-c2ccccc2Cl)o1", "activity change, negative = cytotoxicity": "inactive: 0.801%"}, {"smiles": "O=C(NCC(c1cccnc1)N1CCc2ccccc21)c1cccc(C(F)(F)F)c1", "note": "(stereo not drawn)", "activity change, negative = cytotoxicity": "inactive: -25.4%"}, {"smiles": "COc1ccc(N2CCN(C(=O)c3nc(SC)ncc3Cl)CC2)cc1", "activity change, negative = cytotoxicity": "inactive: 4.43%"}, {"smiles": "CC(NC(=O)CCCn1c(=O)c2cccn2c2cccnc21)c1ccccc1", "note": "(stereo not drawn)", "activity change, negative = cytotoxicity": "inactive: 0.777%"}, {"smiles": "Cc1coc2c(C)c3oc(=O)c(CCC(=O)NCCc4ccc(Cl)cc4)c(C)c3cc12", "activity change, negative = cytotoxicity": "inactive: -4.63%"}, {"smiles": "CC1=C(c2ccc(C)c(C)c2)S(=O)(=O)N=C1N1CCC(C(=O)NCc2ccc(C)o2)CC1", "activity change, negative = cytotoxicity": "inactive: 19.5%"}, {"smiles": "Cc1ccccc1OCCn1c(CCNC(=O)C(C)(C)C)nc2ccccc21", "activity change, negative = cytotoxicity": "inactive: -5.96%"}, {"smiles": "COc1ccc(C(C)C)cc1S(=O)(=O)NCCc1c(C)[nH]c2ccc(C)cc12", "activity change, negative = cytotoxicity": "inactive: -29.4%"}, {"smiles": "CCN(C(=O)CSc1nc2ccccc2n1Cc1cc(C)ccc1C)c1ccccc1", "activity change, negative = cytotoxicity": "inactive: 0.261%"}, {"smiles": "Cc1c2cnn(CC(=O)NC(C)C)c(=O)c2c(C)n1Cc1ccccc1Cl", "activity change, negative = cytotoxicity": "inactive: -2.84%"}, {"smiles": "Cc1c2cnn(CC(=O)Nc3cccc(C(F)(F)F)c3)c(=O)c2c(C)n1Cc1ccccc1Cl", "activity change, negative = cytotoxicity": "inactive: 0.299%"}, {"smiles": "CCOC(=O)N1CCc2c(sc3c2c(=O)n(-c2ccc(CC)cc2)c(=O)n3CC(=O)c2ccc(F)cc2)C1", "activity change, negative = cytotoxicity": "inactive: -3.25%"}, {"smiles": "COc1ccccc1/C=C/c1nc(C#N)c(N(C)C)o1", "activity change, negative = cytotoxicity": "inactive: 10.3%"}, {"smiles": "COc1cc(C(=O)Nc2ccc3nc(SCc4ccccc4)sc3c2)cc(OC)c1OC", "activity change, negative = cytotoxicity": "inactive: 15.8%"}, {"smiles": "COc1ccc(N2CCN(C(=O)c3ccc(-c4nc(COc5ccccc5)c(C)o4)cc3)CC2)cc1", "activity change, negative = cytotoxicity": "inactive: 14.1%"}, {"smiles": "CCCNC(=O)C1CCC(Cn2c(=O)c3sccc3n(CC(=O)N3CCC(C)CC3)c2=O)CC1", "note": "(stereo not drawn)", "activity change, negative = cytotoxicity": "inactive: -0.0919%"}, {"smiles": "Cc1cccc(OCC(=O)N(Cc2sccc2C)C2CCS(=O)(=O)C2)c1", "note": "(stereo not drawn)", "activity change, negative = cytotoxicity": "inactive: 5.56%"}, {"smiles": "O=C(Cn1nc(-c2ccc(Cl)cc2)ccc1=O)NCc1ccccc1Cl", "activity change, negative = cytotoxicity": "inactive: 2.76%"}, {"smiles": "CCOc1ccc(OCC)c(NC(=O)CN(C)S(=O)(=O)c2ccc3c(c2)CCCC(=O)N3)c1", "activity change, negative = cytotoxicity": "inactive: -3.7%"}, {"smiles": "COc1cccc(N2CCN(C3C(=O)c4ccccc4N3C(C)=O)CC2)c1", "note": "(stereo not drawn)", "activity change, negative = cytotoxicity": "inactive: 2.27%"}, {"smiles": "COc1cccc(C2C(C(=O)Nc3ccc(C)cc3C)=C(C)Nc3c(C(=O)Nc4cccc(C)c4)cnn32)c1OC", "note": "(stereo not drawn)", "activity change, negative = cytotoxicity": "inactive: -14.9%"}, {"smiles": "CCOC(=O)c1cnc2c(C)cc(C)cc2c1NCCN1CCOCC1", "activity change, negative = cytotoxicity": "inactive: -20%"}, {"smiles": "O=C(Nc1ccccc1OCc1cc(=O)n2ccccc2n1)Nc1ccccc1C(F)(F)F", "activity change, negative = cytotoxicity": "inactive: -0.478%"}, {"smiles": "Cc1nc2nc(NCc3ccccc3Cl)[nH]n2c(=O)c1Cc1ccccc1", "activity change, negative = cytotoxicity": "inactive: -12%"}, {"smiles": "Cc1ccc(C)c(OCc2nc3ccccc3n2C)c1", "activity change, negative = cytotoxicity": "inactive: 2.07%"}, {"smiles": "Cc1ccccc1NC(=O)CSc1nc2c(oc3ccccc32)c(=O)n1Cc1ccco1", "activity change, negative = cytotoxicity": "inactive: -2.1%"}, {"smiles": "CCCSC1=NC2(CCN(C(=O)NC3CCCCC3)CC2)N=C1c1ccc(C)cc1", "activity change, negative = cytotoxicity": "inactive: -4.17%"}, {"smiles": "COc1ccc(OC)c(CCNC(=O)c2ccc3c(c2)N(Cc2ccccc2)CCS3)c1", "activity change, negative = cytotoxicity": "inactive: 3.63%"}, {"smiles": "COC(=O)c1sccc1S(=O)(=O)N1CCN(c2cccc(C)c2)C(C)C1", "note": "(stereo not drawn)", "activity change, negative = cytotoxicity": "inactive: 19.9%"}]}]}
